Some of the results follow.
How the values were obtained:
Test in all cases: glycan array binding signal (z-score within array); higher = stronger binding
Conditions in all cases: glycan notation: IUPAC condensed, linker removed
[1] = biological target: Glc(b1-4)Glc(b1-4)Glc(b1-4)Glc(b1-4)Glc(b1-4)Glc(b1-4)Glc(b1-4)Glc(b1-4)Glc(b1-4)Glc(b1-4)Glc(b1-4)Glc(b1-4)Glc
In short: (§1)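 The binding signal is a Z-score computed within each array. Data were drawn from 3228 arrays in the Consortium for Functional Glycomics database, restricted to those with a known protein sequence. Scores were averaged over arrays of the same protein sequence at different concentrations or buffers, and over linkers, and negative values can be taken as non-binding.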

Glc(b1-6)Glc = biological target: Glc(b1-6)Glc
In short: as §1

Glc(b1-6)Glc(b1-6)Glc = biological target: Glc(b1-6)Glc(b1-6)Glc
In short: as §1

[2] = biological target: Glc(b1-6)Glc(b1-6)Glc(b1-6)Glc
In short: as §1

[3] = biological target: Glc(b1-6)Glc(b1-6)Glc(b1-6)Glc(b1-6)Glc
In short: as §1

[4] = biological target: Glc(b1-6)Glc(b1-6)Glc(b1-6)Glc(b1-6)Glc(b1-6)Glc
In short: as §1

[5] = biological target: Glc(b1-6)Glc(b1-6)Glc(b1-6)Glc(b1-6)Glc(b1-6)Glc(b1-6)Glc
In short: as §1

[6] = biological target: Glc(b1-6)Glc(b1-6)Glc(b1-6)Glc(b1-6)Glc(b1-6)Glc(b1-6)Glc(b1-6)Glc
In short: as §1

[7] = biological target: Glc(b1-6)Glc(b1-6)Glc(b1-6)Glc(b1-6)Glc(b1-6)Glc(b1-6)Glc(b1-6)Glc(b1-6)Glc
In short: as §1

[8] = biological target: Glc(b1-6)Glc(b1-6)Glc(b1-6)Glc(b1-6)Glc(b1-6)Glc(b1-6)Glc(b1-6)Glc(b1-6)Glc(b1-6)Glc
In short: as §1

[9] = biological target: Glc(b1-6)Glc(b1-6)Glc(b1-6)Glc(b1-6)Glc(b1-6)Glc(b1-6)Glc(b1-6)Glc(b1-6)Glc(b1-6)Glc(b1-6)Glc
In short: as §1

[10] = biological target: Glc(b1-6)Glc(b1-6)Glc(b1-6)Glc(b1-6)Glc(b1-6)Glc(b1-6)Glc(b1-6)Glc(b1-6)Glc(b1-6)Glc(b1-6)Glc(b1-6)Glc
In short: as §1

[11] = biological target: Glc(b1-6)Glc(b1-6)Glc(b1-6)Glc(b1-6)Glc(b1-6)Glc(b1-6)Glc(b1-6)Glc(b1-6)Glc(b1-6)Glc(b1-6)Glc(b1-6)Glc(b1-6)Glc
In short: as §1

GlcA(b1-3)Gal = biological target: GlcA(b1-3)Gal
In short: as §1

[12] = biological target: GlcA(b1-3)Gal(b1-3)GlcNAc
In short: as §1

[13] = biological target: GlcA(b1-3)Gal(b1-4)GlcNAc(b1-3)Gal(b1-4)Glc
In short: as §1

[14] = biological target: GlcA(b1-3)Gal(b1-4)GlcNAc(b1-3)Gal(b1-4)GlcNAc(b1-3)Gal(b1-4)Glc
In short: as §1

[15] = biological target: GlcA(b1-3)GlcNAc(b1-4)GlcA(b1-3)GlcNAc
In short: as §1

[16] = biological target: GlcA(b1-3)GlcNAc(b1-4)GlcA(b1-3)GlcNAc(b1-4)GlcA(b1-3)GlcNAc(b1-4)GlcA(b1-3)GlcNAc(b1-4)GlcA(b1-3)GlcNAc(b1-4)GlcA(b1-3)GlcNAc(b1-4)GlcA(b1-3)GlcNAc
In short: as §1

[17] = biological target: GlcA(b1-4)GlcNAc(a1-4)GlcA(b1-4)2,5-Anhydro-Man
In short: as §1

[18] = biological target: GlcA(b1-4)GlcNAc(a1-4)GlcA(b1-4)GlcNAc(a1-4)GlcA(b1-4)GlcNAc(a1-4)GlcA(b1-4)2,5-Anhydro-Man
In short: as §1

GlcA3S(b1-3)Gal = biological target: GlcA3S(b1-3)Gal
In short: as §1

[19] = biological target: GlcA3S(b1-3)Gal(b1-4)GlcNAc(b1-3)Gal(b1-4)Glc
In short: as §1

[20] = biological target: GlcA3S(b1-3)Gal(b1-4)GlcNAc(b1-3)Gal(b1-4)GlcNAc(b1-3)Gal(b1-4)Glc
In short: as §1

GlcNAc(a1-4)Gal = biological target: GlcNAc(a1-4)Gal
In short: as §1

[21] = biological target: GlcNAc(a1-4)Gal(b1-3)[Fuc(a1-2)]Gal
In short: as §1

GlcNAc(b1-2)Fuc = biological target: GlcNAc(b1-2)Fuc
In short: as §1

GlcNAc(b1-2)Man = biological target: GlcNAc(b1-2)Man
In short: as §1

[22] = biological target: GlcNAc(b1-2)Man(a1-3)[GlcNAc(b1-2)Man(a1-6)]Man
In short: as §1

[23] = biological target: GlcNAc(b1-2)Man(a1-3)[GlcNAc(b1-2)Man(a1-6)]Man(b1-4)GlcNAc(b1-4)GlcNAc
In short: as §1

[24] = biological target: GlcNAc(b1-2)Man(a1-3)[GlcNAc(b1-2)Man(a1-6)]Man(b1-4)GlcNAc(b1-4)[Fuc(a1-6)]GlcNAc
In short: as §1

[25] = biological target: GlcNAc(b1-2)Man(a1-3)[GlcNAc(b1-2)Man(a1-6)][GlcNAc(b1-4)]Man(b1-4)GlcNAc(b1-4)GlcNAc
In short: as §1

[26] = biological target: GlcNAc(b1-2)Man(a1-3)[Man(a1-3)[Man(a1-6)]Man(a1-6)][GlcNAc(b1-4)]Man(b1-4)GlcNAc(b1-4)GlcNAc
In short: as §1

[27] = biological target: GlcNAc(b1-2)[GlcNAc(b1-4)]Man(a1-3)[GlcNAc(b1-2)Man(a1-6)][GlcNAc(b1-4)]Man(b1-4)GlcNAc(b1-4)GlcNAc
In short: as §1

[28] = biological target: GlcNAc(b1-2)[GlcNAc(b1-4)]Man(a1-3)[GlcNAc(b1-2)[GlcNAc(b1-4)][GlcNAc(b1-6)]Man(a1-6)][GlcNAc(b1-4)]Man(b1-4)GlcNAc(b1-4)GlcNAc
In short: as §1

[29] = biological target: GlcNAc(b1-2)[GlcNAc(b1-4)]Man(a1-3)[GlcNAc(b1-2)[GlcNAc(b1-6)]Man(a1-6)]Man(b1-4)GlcNAc(b1-4)GlcNAc
In short: as §1

GlcNAc(b1-3)Fuc = biological target: GlcNAc(b1-3)Fuc
In short: as §1

GlcNAc(b1-3)Gal(b1-4)Glc = biological target: GlcNAc(b1-3)Gal(b1-4)Glc
In short: as §1

[30] = biological target: GlcNAc(b1-3)[GlcNAc(b1-6)]Gal
In short: as §1

[31] = biological target: GlcNAc(b1-3)[GlcNAc(b1-6)]Gal(b1-4)GlcNAc(b1-3)[GlcNAc(b1-6)]Gal(b1-4)GlcNAc(b1-3)Gal(b1-4)Glc
In short: as §1

GlcNAc(b1-4)Fuc = biological target: GlcNAc(b1-4)Fuc
In short: as §1

GlcNAc(b1-4)GlcNAc = biological target: GlcNAc(b1-4)GlcNAc
In short: as §1

[32] = biological target: GlcNAc(b1-4)GlcNAc(b1-4)GlcNAc
In short: as §1

[33] = biological target: GlcNAc(b1-4)GlcNAc(b1-4)GlcNAc(b1-4)GlcNAc
In short: as §1

[34] = biological target: GlcNAc(b1-4)GlcNAc(b1-4)GlcNAc(b1-4)GlcNAc(b1-4)GlcNAc
In short: as §1

Measured: glycan array binding signal (z-score)

B1: MIC1 (Toxoplasma gondii), O00834 (protein)
chain: VGPEAYGEASHSHSPASGRYIQQMLDQRCQEIAAELCQSGLRKMCVPSSRIVARNAVGITHQNTLQWRCFDTASLLESNQENNGVNCVDDCGHTIPCPGGVHRQNSNHATRHEILSKLVEEGVQRFCSPYQASANKYCNDKFPGTIARRSKGFGNNVEVAWRCYEKASLLYSVYAECASNCGTTWYCPGGRRGTSTELDKRHYTEEEGIRQAIGSVDSPCSEVEVCLPKDENPPLCLDESGQISRT
-0.282: [20]
-0.312: [16] | [24] | [29]
-0.3: [14] | [26] | [28] | [32]
-0.309: GlcA(b1-3)Gal | GlcA3S(b1-3)Gal | [19]
-0.301: [27]
-0.292: GlcNAc(b1-4)GlcNAc
-0.265: GlcNAc(a1-4)Gal
-0.306: [25]
-0.299: [12] | [21]
-0.296: [13] | [15]
-0.311: [23]
-0.287: all other assays above

Source: the supplement of paper PMC8728848
